# Laboratory results from the supplement of paper PMC8728848.
# Some of the results follow.
# B1: AICL (Homo sapiens), Q92478 (protein)
# chain: MMTKHKKCFIIVGVLITTNIITLIVKLTRDSQSLCPYDWIGFQNKCYYFSKEEGDWNSSKYNCSTQHADLTIIDNIEEMNFLRRYKCSSDHWIGLKMAKNRTGQWVDGATFTKSFGMRGSEGCAYLSDDGAATARCYTERKWICRKRIH
# Columns and labels:
# Assay in all cases: glycan array binding signal (z-score within array); higher = stronger binding
# Conditions in all cases: glycan notation: IUPAC condensed, linker removed
# Fuc(a1-2)Gal = target: Fuc(a1-2)Gal
# Procedure, shortened: (§1)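 Arrays were curated from the Consortium for Functional Glycomics database, 3228 in total, and kept only where the protein sequence was available. Binding is expressed as a within-array Z-score. This score was averaged across arrays of the same protein sequence at different concentrations or buffers and across linkers, and negative values can be read as non-binding.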
# Fuc(a1-2)Gal(b1-3)GalNAc = target: Fuc(a1-2)Gal(b1-3)GalNAc
# Procedure, shortened: as §1
# [1] = target: Fuc(a1-2)Gal(b1-3)GalNAc(b1-3)Gal
# Procedure, shortened: as §1
# [2] = target: Fuc(a1-2)Gal(b1-3)GalNAc(b1-3)Gal(a1-4)Gal(b1-4)Glc
# Procedure, shortened: as §1
# [3] = target: Fuc(a1-2)Gal(b1-3)GalNAc(b1-4)[Neu5Ac(a2-3)]Gal(b1-4)Glc
# Procedure, shortened: as §1
# Fuc(a1-2)Gal(b1-3)GlcNAc = target: Fuc(a1-2)Gal(b1-3)GlcNAc
# Procedure, shortened: as §1
# [4] = target: Fuc(a1-2)Gal(b1-3)GlcNAc(b1-3)Gal(b1-4)Glc
# Procedure, shortened: as §1
# [5] = target: Fuc(a1-2)Gal(b1-3)[Fuc(a1-4)]GlcNAc
# Procedure, shortened: as §1
# Fuc(a1-2)Gal(b1-4)Glc = target: Fuc(a1-2)Gal(b1-4)Glc
# Procedure, shortened: as §1
# Fuc(a1-2)Gal(b1-4)GlcNAc = target: Fuc(a1-2)Gal(b1-4)GlcNAc
# Procedure, shortened: as §1
# [6] = target: Fuc(a1-2)Gal(b1-4)GlcNAc(b1-3)Gal(b1-4)GlcNAc
# Procedure, shortened: as §1
# [7] = target: Fuc(a1-2)Gal(b1-4)GlcNAc(b1-3)Gal(b1-4)GlcNAc(b1-3)Gal(b1-4)GlcNAc
# Procedure, shortened: as §1
# [8] = target: Fuc(a1-2)Gal(b1-4)[Fuc(a1-3)]GlcNAc
# Procedure, shortened: as §1
# [9] = target: Fuc(a1-2)Gal(b1-4)[Fuc(a1-3)]GlcNAc(b1-3)Gal(b1-4)[Fuc(a1-3)]GlcNAc
# Procedure, shortened: as §1
# [10] = target: Fuc(a1-2)Gal(b1-4)[Fuc(a1-3)]GlcNAc(b1-3)Gal(b1-4)[Fuc(a1-3)]GlcNAc(b1-3)Gal(b1-4)[Fuc(a1-3)]GlcNAc
# Procedure, shortened: as §1
# Fuc(a1-2)GlcNAc = target: Fuc(a1-2)GlcNAc
# Procedure, shortened: as §1
# Fuc(a1-2)[Gal(a1-3)]Gal = target: Fuc(a1-2)[Gal(a1-3)]Gal
# Procedure, shortened: as §1
# [11] = target: Fuc(a1-2)[Gal(a1-3)]Gal(b1-3)GlcNAc
# Procedure, shortened: as §1
# [12] = target: Fuc(a1-2)[Gal(a1-3)]Gal(b1-4)Glc
# Procedure, shortened: as §1
# [13] = target: Fuc(a1-2)[Gal(a1-3)]Gal(b1-4)GlcNAc
# Procedure, shortened: as §1
# [14] = target: Fuc(a1-2)[Gal(a1-3)]Gal(b1-4)[Fuc(a1-3)]GlcNAc
# Procedure, shortened: as §1
# [15] = target: Fuc(a1-2)[Gal(a1-4)]Gal(b1-4)GlcNAc
# Procedure, shortened: as §1
# [16] = target: Fuc(a1-2)[GalNAc(a1-3)]Gal
# Procedure, shortened: as §1
# [17] = target: Fuc(a1-2)[GalNAc(a1-3)]Gal(b1-3)GlcNAc
# Procedure, shortened: as §1
# [18] = target: Fuc(a1-2)[GalNAc(a1-3)]Gal(b1-4)Glc
# Procedure, shortened: as §1
# [19] = target: Fuc(a1-2)[GalNAc(a1-3)]Gal(b1-4)GlcNAc
# Procedure, shortened: as §1
# [20] = target: Fuc(a1-2)[GalNAc(a1-3)]Gal(b1-4)[Fuc(a1-3)]GlcNAc
# Procedure, shortened: as §1
# [21] = target: Fuc(a1-2)[GalNAc(a1-4)]Gal(b1-4)GlcNAc
# Procedure, shortened: as §1
# [22] = target: Fuc(a1-2)[GalNAc(b1-3)]Gal
# Procedure, shortened: as §1
# Fuc(a1-3)GlcNAc = target: Fuc(a1-3)GlcNAc
# Procedure, shortened: as §1
binder,measurement,setting,value
B1,glycan array binding signal (z-score),Fuc(a1-2)Gal,-0.425
same,glycan array binding signal (z-score),Fuc(a1-2)Gal(b1-3)GalNAc,-0.338
same,glycan array binding signal (z-score),[1],0.755
same,glycan array binding signal (z-score),[2],-0.076
same,glycan array binding signal (z-score),[3],-0.209
same,glycan array binding signal (z-score),Fuc(a1-2)Gal(b1-3)GlcNAc,-0.386
same,glycan array binding signal (z-score),[4],-0.41
same,glycan array binding signal (z-score),[5],2
same,glycan array binding signal (z-score),Fuc(a1-2)Gal(b1-4)Glc,-0.459
same,glycan array binding signal (z-score),Fuc(a1-2)Gal(b1-4)GlcNAc,0.25
same,glycan array binding signal (z-score),[6],-0.446
same,glycan array binding signal (z-score),[7],-0.109
same,glycan array binding signal (z-score),[8],-0.295
same,glycan array binding signal (z-score),[9],-0.049
same,glycan array binding signal (z-score),[10],0.298
same,glycan array binding signal (z-score),Fuc(a1-2)GlcNAc,-0.398
same,glycan array binding signal (z-score),Fuc(a1-2)[Gal(a1-3)]Gal,-0.508
same,glycan array binding signal (z-score),[11],-0.498
same,glycan array binding signal (z-score),[12],-0.329
same,glycan array binding signal (z-score),[13],-0.312
same,glycan array binding signal (z-score),[14],-0.22
same,glycan array binding signal (z-score),[15],-0.399
same,glycan array binding signal (z-score),[16],-0.433
same,glycan array binding signal (z-score),[17],-0.128
same,glycan array binding signal (z-score),[18],-0.265
same,glycan array binding signal (z-score),[19],-0.158
same,glycan array binding signal (z-score),[20],-0.191
same,glycan array binding signal (z-score),[21],-0.482
same,glycan array binding signal (z-score),[22],-0.203
same,glycan array binding signal (z-score),Fuc(a1-3)GlcNAc,-0.024
